# PubChem BioAssay (NCI)
# Some structures have more than one record in an assay (separate samples or runs), and their calls can disagree.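 Single-concentration screen, 48 h exposure, 96-well plates. Endpoint: percent growth. Below 10 = active.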 For part of its entries the source gives two or more results. Only these are listed. The source may hold further records. This drug was run again and again over the years, at the concentration stated with the values; each value is one run. Counts like (3×) say how often a value occurs here.
# Tested on: UACC-62 melanoma
# Assay: NCI-60 one-dose screen, 48 h (100 = growth as untreated, 0 = no growth, -100 = all killed)
# Conditions: 0.25 µM
smiles,measurement,setting,value
COc1cccc2c1C(=O)c1c(O)c3c(c(O)c1C2=O)C[C@@](O)(C(=O)CO)C[C@@H]3OC1CC(N)C(O)C(C)O1 (stereo partly specified),growth,runs of 2007,"inactive: 18.8, 38.7, 36.9, 26.8, 30.9, 29.1 (2×), 28.9, 34, 25, 31.7, 39.9, 34.8, 52.4, 25.7, 42.5, 13.6, 22.3, 30.4, 43.4, 26.1, 23.1 (2×), 62.2, 47.4, 35.5, 32.4, 35.1, 34.3, 19.3, 37.3, 43.2, 28.6, 25.6, 15.9, 43.6, 31.6, 35.6, 40.5, 41.7, 30.8% and active: -5.99%"
same,growth,runs of 2008,"inactive: 42.7, 31.5, 25.2, 27.7, 31.9, 27.2, 29.2, 22.3, 31.6, 37.3, 37.2, 16.1, 26.9, 20.8, 88.1, 31.3, 11.6, 20.7, 20.5, 28.6, 28, 35.6, 26.5, 14.8, 40.9, 21.1, 12.8, 11.2, 18, 29.3, 21.3, 24.4% and active: -4.87, 2.4, 0.892, 3.98, -27.2, -13.6, -0.803, -4.73, -2.81, 0.419, 1.71, -35.3, -26.7, -3.64, -4.12, -30.6, 3.06, 0.233, 8.07, 6.39%"
same,growth,runs of 2009,"inactive: 23.6, 25.2 (3×), 30.4, 21 (2×), 12.2, 35.7 (2×), 34.8, 31.9 (2×), 32.5, 31, 33, 37.4, 22.9, 26.6 (2×), 19.6 (2×), 30.7, 33.1, 34.9, 32.9, 37.3 (2×), 25.8, 28.9, 43.5, 36.5, 37.7, 34.5, 62.3, 51.8, 17, 48.6, 42.1, 19.3, 48.4, 43, 41.3, 39.8, 25.6, 29.8, 20.2, 15.7, 27.5, 28.2, 12.1, 20.9, 15, 30.8, 42.6, 19.2, 30.9, 40.8, 22.7, 30.5 (2×), 33.4, 43.2, 40.2, 28.4% and active: 8.07%, 3.17%"
same,growth,runs of 2010,"inactive: 27.6, 33.9, 17.4, 39.9 (2×), 32.5, 21.9, 34.3, 37.7, 14.4, 32.6, 23.1, 35.5, 27.2, 37.3, 42.4, 41.7, 27.9, 35.1, 44.4, 45.7, 27.5, 23.3, 24.2, 26.1, 26, 27.4, 35.3, 16.7, 19.7, 30.1, 36.5, 28.6, 34.6, 36.1, 33.3, 26.9, 49.1, 29.2, 31.1, 28.7, 41.3, 26.2, 50.2, 42, 33.6, 35.7, 48.4, 53.4, 41.6, 38.4, 33.4% and active: 2.87%, 1.38%"
same,growth,runs of 2011,"inactive: 30 (2×), 39.1, 31.2, 35 (2×), 42.3, 19.6, 36.9, 33.1, 29.4 (2×), 14.2, 38, 36.1, 43.1, 38.9 (2×), 40.9, 45.1, 51.9, 44.4, 30.9, 40.2 (2×), 35.4, 47.2, 52, 41.2, 49.2, 39.9, 41.3, 28.6, 42.5, 38.8, 35.7, 29.3, 30.5, 35.2, 19.9, 23.7, 17.9, 25.6, 24, 33.8, 33.4, 30.4, 23.3, 25.2, 28.9, 31.9, 20.9, 25.9, 36.5%"
same,growth,runs of 2012,"inactive: 28.1, 35.3, 28.6, 25.6, 35.5, 33.6, 40.1, 23.6, 18.9, 17.1, 20, 20.5, 30.7 (2×), 19.6, 22.5, 32.5, 30, 16.7, 11.3, 51.6, 36.4, 62, 58.8, 54.9, 50.1, 47.3, 48.6, 43.4, 39.7, 34.3, 50.6, 46.1, 37.4, 30.8, 36, 34.2, 45.6, 30.1, 51.5, 44.6, 47, 43.8, 55.1, 49.7, 48.7, 44, 49, 44.9, 47.8, 45.3, 49.3, 42.9, 53.7, 48.4, 42.6, 44.1, 29.8, 29.1, 27.8, 27.9, 38.6, 38.4, 31.9, 38.3, 39.4, 52.1, 42.8% and active: 6.4%, 7.77%"
same,growth,runs of 2013,"inactive: 28.1, 32.9, 35.2, 29.2, 26, 47.9, 45.3, 49.5, 40.3, 50.1, 54.7, 42.5, 46.7, 49.9, 46.2, 48, 45.7, 36.5, 44.1, 49.1, 40.7, 40.8, 43.8 (2×), 41.6, 48.5, 45.4, 42.6, 34.8, 43.1, 37.2, 34.1, 33.7, 36, 29.1, 42.2, 37.7 (2×), 36.9, 38.6, 41.9, 38 (2×), 38.4, 38.7, 29.5, 32.4, 20.9, 26.6, 36.4, 30.9, 38.5, 24.6, 17, 31, 17.9, 38.8, 26.9, 12.8, 19.3, 17.5, 27.8, 23.9, 35.5% and active: -14.3, -1.39, 0.361, 1.61, -18.5, 6.08, -6.48, -3.96%"
same,growth,runs of 2014,"inactive: 16.7, 29.2, 22.9, 32.1, 36.9, 16.3, 14.7, 21.8, 12.1, 20.2, 29.3, 30.3, 25, 27.9, 30.1, 33.4, 38, 33.7, 35.7, 31.2, 37.6, 13.3, 17.2, 15.3, 15.6, 17.1, 12.6, 11.4, 12.9, 14.1, 11.3, 11.1, 29.6, 24, 11.2, 14.4, 19.6, 14.8, 38.9, 15.4, 19.2, 16.1, 23.5, 35.9% and active: 6.07, 5.44, 6.76, 7.69, 5.29, 5.6, 7.37, 3.75, 3.44, 3.43, -6.44, -18.3, 9.05, 6.21, 8.55, 6.94, -26.1, 0.734, -33.7, -5.1, -6.35, 0.154, -0.0318, 5.99, 8.28, 4.33, -9.93, -6.3, -1.01, 8.38, 9.85, 1.03, -6.14%"
same,growth,runs of 2015,"active: 3.48, -2.32, 1.21 (2×), 7.6, 3.1, 5.95, -6.92, -11, -8.06, -10.6, 7.66, -8.67, 8.28, 5.59, 7.18, 5.25, 7.53, 2.04, 1.07, 0.906, -0.368, 5.97, 3.82, 9.29, 7.44, 5.52, -4.56, 4.45, 9.11, 9.9, -3.88, -2.41, 5.9, 7.52, 5.09% and inactive: 24.3, 10.2, 30 (2×), 26.2, 12.4, 32.2, 10.4, 15 (2×), 16.1 (2×), 12.5, 11.1 (2×), 27.4, 30.2, 29.9, 17.1, 16.3, 26.7, 32.7, 13.7, 22.5, 18.8, 13.6, 20.9, 43.6, 23.4, 30.9, 14.1, 21.1, 25.2, 19.8, 19.9, 13.3, 47, 37.2, 40.3%"
same,growth,runs of 2016,"inactive: 18.3, 16.5, 12.5, 37.6, 44.4, 40.4, 35.4, 37.1, 26.3, 34.8 (2×), 22.3, 27.7, 17.1, 25.7 (2×), 29.6, 14.6, 28.2, 35.7, 32.9, 19.3 (2×), 19.5 (3×), 18.7, 29.4, 30.8 (2×), 23.6, 25.8, 19.7, 15.6, 19.6, 17.4, 24.1, 13.9, 20.8, 38.3, 43.2, 41.2, 31.7, 41.5, 40.8, 29.3 (2×), 33.6, 24.2, 32.1, 16.1, 22.5, 27.9 (2×), 34.9 (2×), 31, 37.5, 27.4, 24.5 (2×), 21.5, 26.9, 41, 30.9, 35.6, 44.8, 38.9, 45.4, 43, 38.7, 39.3, 41.9, 42.5, 39.7, 30, 28.4, 30.2, 30.3, 25.6, 33.7, 32.8% and active: 9.18%"
same,growth,runs of 2017,"inactive: 21.6, 24.9, 12.1, 14.7, 21 (2×), 18.6 (2×), 13.5, 22.4, 18.3 (2×), 22.2, 21.3 (2×), 12.5, 16.4, 23.2, 17.1, 11.7 (2×), 19.6 (2×), 13.3, 18, 14.2, 15.2, 15.9, 20.3 (2×), 11.9, 20.6, 32.5, 17.4, 24, 20.5, 18.5, 28.2, 31.9, 24.3, 19.7 (2×), 20.2, 21.5, 29.9, 11.3, 30.7 (2×), 35, 26.2, 19.3 (2×), 42.2, 44.8, 14, 23.8, 23.1, 15.8, 21.8, 15.7, 13.7, 26.8, 13.8, 16.1, 31.4% and active: 7.97, 9.71, 6.27, 8.09, 9.22, 9.2%"
